# Some of the results follow.
# System: PfSIP2 AP2 domain 1 (GST-tagged)
# Test: gcPBM binding intensity (ln(normalized median fluorescence intensity)); higher = stronger DNA binding
# How it was run: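 Binding intensity is the highest Masliner-normalised natural-log median intensity over replicate spots in either probe orientation. To obtain it, GST-tagged P. falciparum DNA-binding domains made in E. coli were incubated for 1 h on an Agilent 4 × 180k array of primer-extended double-stranded 36-bp intergenic genomic probes plus negative controls. Detection used Alexa488 anti-GST antibody with scanning at 488 nm.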
row,Sequence,gcPBM binding intensity (ln)
1,GACCAATACTTTAAAAGTACAAACCTTATTTTATTT [XGTACX_site2718],7.22
2,AATTATGCATTTGTCACACATATATATTACACTTGC [CACACA_site5324],7.13
3,AAAAAAAAAAAAAAATGTACATTATACACATTATAT [XGTACX_site6824],7.29
4,TAGCCAAAATATAATTTACACACTTATTAAATAATT [CACACA_site7963],6.79
5,ATATAATATTGAGTTTGTACATATATATATGAAGAT [XGTACX_site4444],7.15
6,AAATAAATATATATATGTACATACAAATACACGGTA [XGTACX_site8510],7.09
7,AAGAAAAATGTCATATGATATCATATATTTTATAAT [TGCATGCA_negctrl_site296],6.82
8,ATTTTCCCTTGTTTTACACACGTGCTGATATGAGAT [CACACA_site2164],7.31
9,GTATTATCTGCTTTTTGTACACATATATTTAAAAAA [XGTACX_site7603],7.91
10,TTCTGTGTGTATTGGCGTACAATTATTTTGCCTACA [XGTACX_site205],7.52
11,ACATTCACAAAATTTTGTACACATATATATATATAT [XGTACX_site3518],9.23
12,CGATTTTTTAAGTTTGTGCACTTAAAAACTATAACA,9.78
13,CCATTTGATAATAATGCACACCACATATATTTATAT [CACACA_site9002],7.59
14,AAAAGGAATTATAGGAAATAAATATATACAAATATA [TGCATGCA_negctrl_site528],6.86
15,TATACTATACAACACATACACACAAAAAAAAAAAAA [CACACA_site537],7.22
16,TATATGTCAATATCTACACACATATAGGTAATTATT [CACACA_site7475],6.71
17,TATTTCAAAATAAAATAAAATATATATATATGTATA [XGTACX_negctrl_site416],6.95
18,TTTATTTATTAAGAATGTACATGTATTTGTTAAATA [XGTACX_site4465],7.29
19,TAAATCATGGGATAAGCATGCGCGCACATGTTTGTT [TGCATGCA_site768],7.05

row,Sequence,gcPBM binding intensity (ln)
1,ACCCACGTAAATTAAGCATGCCTTCCGTTATATTTA [TGCATGCA_site365],6.99
2,TTTTACTAAATATATACACACATTATGCATATATAT [CACACA_site3287],7.57
3,TATATGTAATATTATACATGCATACATAATATATAT [TGCATGCA_site558],7.31
4,TTTTTTTTTTATAAGGCACACATGAATATTTATACA [CACACA_site1316],7.03
5,TATGTGAATATAATCACACACAATACGGAAAGAGAC [CACACA_site7311],8.34
6,AATGTGATAATATACACACACGCATATATATATATA [CACACA_site323],9.89
7,CTGTGTAATTTAAATTGTACGTTTGAAAAAAATAAA [XGTACX_site5667],7.22
8,AAAACACTTATGGATTGTACAATAAAAATTATATTA [XGTACX_site7042],6.93
9,TTTTAAAGAAAAAAATGTACAAAATTTTTATTTTAA [XGTACX_site1496],6.62
10,AGTAGTCTGGAGAAGAGTACACAGTATCTGGTAGCT [XGTACX_site2042],6.71
11,ACATTAACATTGTTGGTGCAAAATTAATATGTTTTT [GTGCAC_site9673],9.77
12,CAAACATATTAATGTACACACACCCACCCACAAACA [CACACA_site2752],7.69
13,TTTTTTTCAATATTTGCACACGATTAAAATATTTAA [CACACA_site5266],7.28
14,TATTATATATATATATGTACATATTGTATGTTATAT [XGTACX_site5303],7.09
15,TATGTGAATATTGAGGTGCGGTTGTTAAAATTTATA [GTGCAC_site9915],10.1
16,TTAAATATTTTTTATACACACATTTCTTATTTAACT [CACACA_site229],6.85
17,TAATTATTATTAATAGTACACACTATGGCATTTCAA [CACACA_site2488],6.94
18,CCTAAAGTGTAAAATTCACACACATATATATATATA [CACACA_site8385],8.94
19,TTTATTTATAGGTATACACACTTTAATTAAAAGTTG [CACACA_site7232],6.82

row,Sequence,gcPBM binding intensity (ln)
1,TTTATTTTTGAAGTTGCACACACAAAAATAAAAAGT [CACACA_site8030],8.18
2,AATTCAATTGAGCAAAATTCAAATAAATTAAAAAGA [XGTACX_negctrl_site71],6.76
3,CAAAAATAATTTAGGTGTACAAATTTGACAAAAAAA [XGTACX_site188],7.02
4,ATGAAACACTCCATAGTGCAAAATATATATTATATT,8.32
5,CTATTTTTCCTGAAATGTACAAGAATTTTATTTGAT [XGTACX_site8867],6.93
6,TGATAATATTATATATGTACATATATGTATATTTTT [XGTACX_site7193],7
7,ATATGGGTGAACATATGTACATATATATATTGATAA [XGTACX_site8438],7.1
8,TTGGTATATTATAAAAGTACACATAATAAAAAATTT [XGTACX_site7985],7.02
9,ATTTTTCATTCTGGACATGTTACCATTATATATATG [CACACA_negctrl_site61],7.4
10,ATAACTATAATAATCATACACACCAAAGAGAATATT [CACACA_site6970],7.05
11,TAATTTGTTATGTATTGTACAAATAATATATGATAT [XGTACX_site1985],7.09
12,ATTAAAAAAATATACGCACACAAAATGTAATAACAA [CACACA_site2439],7.06
13,TTTTGTTTAAAAAAAAAAAACAAAAAAAAGCAATTA [CACACA_negctrl_site314],6.58
14,TTACATAATTTATGTACACACGCAAATACTTATAAT [CACACA_site4331],7.17
15,AATTATTAAATATGTACACACGTACATTTTATAAAT [CACACA_site5341],6.92
16,AGTACATTATAGAATACACACCTATATATATATATA [CACACA_site4447],9.16
17,TATTTTGTTCTTTCCACACACAAATACATATATTGT [CACACA_site4071],7.18
18,TAATACATACACACATGTACATACAGAAATAAATAA [XGTACX_site3245],7.28
19,AATATAAAAATGTTTACACACACACGGAAATATATT [CACACA_site7226],6.98
